For this experiment, the target named is T1, human IgE (human, UniProt P01854-1 1-428).
T1 construct: Immobilized on plates or on a CM5 chip; variable regions and light chain not described
T1 chain (looked up): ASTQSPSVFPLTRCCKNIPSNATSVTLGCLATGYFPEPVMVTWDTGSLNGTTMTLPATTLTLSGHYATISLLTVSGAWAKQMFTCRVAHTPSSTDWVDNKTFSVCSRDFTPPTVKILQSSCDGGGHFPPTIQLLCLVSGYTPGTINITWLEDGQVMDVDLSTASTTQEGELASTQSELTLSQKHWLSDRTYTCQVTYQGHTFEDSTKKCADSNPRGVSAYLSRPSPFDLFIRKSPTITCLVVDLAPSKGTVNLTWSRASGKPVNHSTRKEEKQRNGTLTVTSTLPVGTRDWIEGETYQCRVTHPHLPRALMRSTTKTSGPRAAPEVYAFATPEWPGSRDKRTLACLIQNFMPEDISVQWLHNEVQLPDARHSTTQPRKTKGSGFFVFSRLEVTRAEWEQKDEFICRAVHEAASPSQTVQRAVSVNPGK
Put plainly: Biacore, human IgE on CM5 chip. (SPR reads the build-up and loss of mass on a sensor chip optically.)

B1: IgE-1.23.23 (designed binder)
chain: CPAGQFRCENGRCLPPPWRCDGVNDCEDNSDEAGCGDSHILPFSTPGPSTCPANEFQCRNSSTCIPRRWLCDGDDDCGDGSDETGCSAPASEPPGSLCPAGQFRCENGRCLPPPWRCDGVNDCEDNSDEAGCGDSHILPFSTPGPSTCPANEFQCRNSSTCIPRRWLCDGDDDCGDGSDETGCSAPASEPPGSL
B1: binding was put at a Kd of 150 nM.

Source of the values: patent US20050089932A1 (AVIDIA RESEARCH INSTITUTE, published 2005).
